For one assay, the system named is SR leukemia. As to the kind of experiment: NCI-60 one-dose screen, 48 h (100 = growth as untreated, 0 = no growth, -100 = all killed).
For a further assay, the system named is RPMI-8226 leukemia. Described as above. To be noted: 0.25 µM.

A structure can be active in one record and inactive in another.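 Single-dose data. Exposure time 48 hours. Values below 10 considered active.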 Some entries of the source have several records that differ or are many. Only these are listed. The source may hold further records. This drug was run again and again over the years, at its own concentration, as given; each value is one run. Marks such as (2×) say how often a value occurs here.

For the molecule `COc1cccc2c1C(=O)c1c(O)c3c(c(O)c1C2=O)C[C@@](O)(C(=O)CO)C[C@@H]3OC1CC(N)C(O)C(C)O1` (stereo not given in full), the growth result in the assay on SR leukemia (0.25 µM, runs of 2021) was “active: -3.19, 1.33, -3.52, 8.05, 7.35, 7.34, 7.2, 9.97, 7.69 (2×), 8.87, 8.31, 7.23, 6.77, 6.87, 9.95, 0.724, 6.84, 2.55, 8.48, 6.33, -0.651, 5.08, 3.43, 0.235, 5.64 (2×), 4.99, 9.8, 7.95, 8.67, 4.97, -0.92, -2.75, 9.17, 5.68, 7.17, 8.28, 3.73, 0.516, 8.69% and inactive: 11.5 (2×), 23.3, 33.2, 35.3, 16.2, 13, 14.9, 12.9, 13.5, 11.1, 10.1%”; with SR leukemia (0.25 µM, runs of 2022), “inactive: 20, 19.4, 20.8, 14, 17.9, 12.3, 21.3, 22.5, 13.8% and active: -31.7, -26.8, 3.54, 9.63, 3.84, 4.45, 7.14, -0.211, 6.93, 3.39, 0.0618%”; with SR leukemia (25 µM, runs of 1991), “active: -19.6, -24.5, -29.5, -20.9, -34.4, -21.3, -29.9, -37.2, -29.3% and inactive: 29.6%, 20.6%, 33.5%”; in the assay on SR leukemia (25 µM, runs of 1992), “active: 1.59, -17, -39.6, -51.6, 5.36, -15.4, -16.9, -40.3, -8.45, -42.7, 1.19, -13.3 (2×), -10.1, -26.9, -10.2, -8.5, -0.297, 2.49, -19.8, -12.2, -46.8, -8.88, -24.5, -27.1, -43.1, -46.2, -24.3, 0.454, -25.7, -39.5, -35.3, -21.3, -45.9, -34.1, 0.152, 5.08, -12.3, 9.24, -39 (2×), -64.1, -31.3, 7.6, -21.7, -8.37, -30.2, -2.68, -0.145, -24, -0.634, -30.9, -44, 1.6, -22, -28.6, -46.6, -43.3, -20.9, -11.1, -38.4, -33.2, -100, -29.6, -2.96, -36.1, -23.2, -31.1, -9.23, -11.2, -22.4, -33.5, -35.6% and inactive: 27.6, 17.1, 11.6, 24.7, 48.8, 27.4, 25.9%”; with SR leukemia (25 µM, runs of 1993) it was “active: -14, -3.21, -32.2, -36.4, -24.6, -10.5, 2.97, 8.16, -16.8, -7.76, -12.3, -29.3, -28.7 (2×), -45.1, -17.9, -11.6, -41.6, -17.1, -35.1, -55, -3.46, -50.7, -35.3, -42.8, -27, -11.9, -12.7, 3.84, -29.6, -5.23% and inactive: 16, 29.6, 14.8, 62.9, 68.1, 19.9, 17.5, 45.3%”; with SR leukemia (25 µM, runs of 1994), “active: 0.478, -38.3, 0, 0.623, -3.33, 0.0396, -81.3, -34.6, 1.23, -13.8, 5.66, -20.9, 9.34, -14.2, -6.97, 1.45, -34.8, -10.2, 8.36, -47.2, -33.6, -13.1% and inactive: 48%”. Also, the growth entry in the assay on SR leukemia (25 µM, runs of 1995) is “active: -26.6, -38.4, -25.7, -42.2, -47.8, -14.3 (2×), -17.1, -13.4, -32.8, -30.6, -18.3, -17.3, 1.24, -36.9, -52.3, -18, -15.8, 7.61, -54.2, -40.7, 4.51, -10.1, -16, -31.1, -8.67, -61.5, -41.5, -41.9, 7.41, -59.3, -18.5, -58.6% and inactive: 13.9%, 15.5%, 12.2%”; with SR leukemia (25 µM, runs of 1996) it was “active: -49.2 (2×), -39.1, -36.9, -20.6 (2×), -29.3, 6.89, -23.7, 5.41, -19.2, -45.2, -43.8, -35, -52.6, -4.34, -17.6, -47.9, -58.6, 9.83, 4.44, -35.7, -38.2, -44.3, -67.6, -56.9, -10.2, -6.59, -47.3, 1.17, -50, -6.72, -49.9, -100, -37.1% and inactive: 19.5, 14.9, 82.9, 37.1, 15.5, 45, 30.5, 76.2, 24.9%”; in the assay on SR leukemia (25 µM, runs of 1997), “active: -9.72, -14.5, -40, -30.8, -54.9, -63.2, -40.6, 3.63, -28, 3.7, -31.8, -56.9, -35.1, 6.93, -29.5, 6.68, -42.6, 1.59, -30.5, -8.71, -15.8, -16.1% and inactive: 43.1, 24.9, 11.1, 31.6%”; in the assay on SR leukemia (25 µM, runs of 1998), “active: -23, -25.5, -6.21, -45.3, -41.6, -65.8, 3.29, 2.61, -40.9, -6.43, -15.3, -2.6, -23.9, 4.74, 4.63, -34.9, -39.8% and inactive: 29.7%, 10.4%, 98.4%”; in the assay on SR leukemia (25 µM, runs of 1999), “active: -12.5, -7.31, -40, -33.9, -73.7, 9%”; in the assay on SR leukemia (25 µM, runs of 2000) it was “active: -77.3, 2.63, 9.28, -64.1%”. Moreover, the growth result in the assay on RPMI-8226 leukemia (runs of 2006) was “active: -6.69% and inactive: 25.8%”; with RPMI-8226 leukemia (runs of 2007), “active: 9.29, -12.1, 6.72, -8.47, -11.6 (2×), -9.45, 5.63, -7.3, -3.59, -13.4, -23.3, -1.8, -32.3, 4.24, -3.83, -22.4% and inactive: 10.4, 14.4, 38.5, 60.5, 45.2, 50.2, 33.3, 22.4, 29.4, 78.4, 13.8, 15.2, 20.2, 23.9, 17.9, 25, 31.3, 11.4, 47.9, 87.7, 37.8, 49.4, 14.8, 21.8, 37.5, 41, 30.9, 39.2%”; with RPMI-8226 leukemia (runs of 2008), “inactive: 25.2, 75.6, 35.4, 13.4, 31.3, 36.6, 69.6, 18.9, 82.4, 18.3, 17.3, 32.9, 24.5, 11.7, 16.3, 19.2, 14.5% and active: -5.07, -23.2 (2×), -23.1, -12.9, -13.5, -5.11, -26.7, -4.76, -18.1, -4.51, -24.7, -17, -17.8, 1.11, -14.3, 0.309, -9.02, -17.6, -41.5, -28.3, 4.71, 2.35, 1.33, 3.05, -14.8, -20.3, 1.23, -14.2, -4.81, -0.564, 0.514, -15.7, -20, -3.4, 1.57%”.

Source of the values: PubChem BioAssay (NCI).
